According to the supplement of paper PMC10928670:
MIC of N. gonorrhoeae strains collected 1971-2005, agar dilution (CLSI M07); ranges 0.03-64 mg/L (penicillin, azithromycin), 0.015-1 (cefixime, ceftriaxone), 0.5-256 (spectinomycin); higher = less susceptible. No active / inactive call per row; the paper counts cefixime and ceftriaxone above 0.25 and azithromycin above 1 mg/L as non-susceptible. The source says 'penicillin'; penicillin G is assumed. Isolates are numbered anew.

Columns and labels:
Test in all cases: Agar dilution by CLSI M07.
spectinomycin = compound: CN[C@@H]1[C@H](O)[C@H](NC)[C@H]2O[C@@]3(O)C(=O)C[C@@H](C)O[C@H]3O[C@@H]2[C@H]1O [spectinomycin]
ceftriaxone = compound: CO/N=C(\C(=O)N[C@@H]1C(=O)N2C(C(=O)O)=C(CSc3nc(=O)c(O)nn3C)CS[C@H]12)c1csc(N)n1 [ceftriaxone]
azithromycin = compound: CC[C@H]1OC(=O)[C@H](C)[C@@H](O[C@H]2C[C@@](C)(OC)[C@@H](O)[C@H](C)O2)[C@H](C)[C@@H](O[C@@H]2O[C@H](C)C[C@H](N(C)C)[C@H]2O)[C@](C)(O)C[C@@H](C)CN(C)[C@H](C)[C@@H](O)[C@]1(C)O [azithromycin]
cefixime = compound: C=CC1=C(C(=O)O)N2C(=O)[C@@H](NC(=O)/C(=N\OCC(=O)O)c3csc(N)n3)[C@H]2SC1 [cefixime]
penicillin G = compound: CC1(C)S[C@@H]2[C@H](NC(=O)Cc3ccccc3)C(=O)N2[C@H]1C(=O)O [penicillin G]

Test System	MIC (spectinomycin) [µg/mL]	MIC (ceftriaxone) [µg/mL]	MIC (azithromycin) [µg/mL]	MIC (cefixime) [µg/mL]	MIC (penicillin G) [µg/mL]
Neisseria gonorrhoeae isolate 46 (GyrA: Wild type, ParC: Wild type, mtrR: Wild type, penA: Type II NonMosaic, A517G, ponA: Wild type, porB: G120K, A121D)	16	≤ 0.015	0.125	≤ 0.015	2
Neisseria gonorrhoeae isolate 221 (GyrA: Wild type, ParC: Wild type, mtrR: Wild type, penA: WT NonMosaic, ponA: Wild type, porB: G120D, A121D)	≤ 0.5	≤ 0.015	≤ 0.03	≤ 0.015	≤ 0.03
Neisseria gonorrhoeae isolate 74 (GyrA: Wild type, ParC: Wild type, mtrR: A39T, penA: Type II NonMosaic, A517G, ponA: Wild type, porB: Wild type)	16	≤ 0.015	0.06	≤ 0.015	0.125
Neisseria gonorrhoeae isolate 12 (GyrA: Wild type, ParC: Wild type, mtrR: -35A Del, penA: Type IV NonMosaic, A517G, G543S, ponA: L421P, porB: G120K, A121D)	32	0.06	0.25	0.03	2
Neisseria gonorrhoeae isolate 95 (GyrA: Wild type, ParC: Wild type, mtrR: -35A Del, penA: Type XXII NonMosaic, A517G, ponA: L421P, porB: G120D, A121D)	16	≤ 0.015	0.5	≤ 0.015	1
Neisseria gonorrhoeae isolate 145 (GyrA: D95G, ParC: Wild type, mtrR: A39T, penA: Type II NonMosaic, A517G, ponA: Wild type, porB: Wild type)	32	≤ 0.015	0.06	≤ 0.015	0.125
Neisseria gonorrhoeae isolate 54 (GyrA: D95N, ParC: Wild type, mtrR: -35A Del, penA: Type XII NonMosaic, A517G, ponA: L421P, porB: G120K, A121N)	16	0.06	0.5	0.06	4
Neisseria gonorrhoeae isolate 216 (GyrA: Wild type, ParC: Wild type, mtrR: -35A Del, penA: Type XXII NonMosaic, A517G, ponA: L421P, porB: G120K, A121D)	16	0.03	1	0.03	2
Neisseria gonorrhoeae isolate 5 (GyrA: Wild type, ParC: Wild type, mtrR: -35A Del, G45D, penA: Type XIX NonMosaic, A517G, ponA: Wild type, porB: G120D, A121D)	16	≤ 0.015	0.25	≤ 0.015	0.25
Neisseria gonorrhoeae isolate 117 (GyrA: Wild type, ParC: Wild type, mtrR: G45D, penA: Type XXII NonMosaic, A517G, ponA: Wild type, porB: Wild type)	8	≤ 0.015	0.25	≤ 0.015	0.5
Neisseria gonorrhoeae isolate 148 (GyrA: Wild type, ParC: Wild type, mtrR: Wild type, penA: Type XIX NonMosaic, A517G, ponA: L421P, porB: G120D, A121D)	16	≤ 0.015	0.125	≤ 0.015	0.5
Neisseria gonorrhoeae isolate 17 (GyrA: Wild type, ParC: Wild type, mtrR: G45D, penA: Type XXII NonMosaic, A517G, ponA: L421P, porB: G120D)	64	≤ 0.015	1	≤ 0.015	1
Neisseria gonorrhoeae isolate 206 (GyrA: Wild type, ParC: Wild type, mtrR: Wild type, penA: Type II NonMosaic, A517G, ponA: L421P, porB: porB1a)	16	≤ 0.015	0.125	≤ 0.015	0.25
Neisseria gonorrhoeae isolate 22 (GyrA: Wild type, ParC: Wild type, mtrR: -35A Del, A39T, penA: Type XXII NonMosaic, A517G, ponA: Wild type, porB: Wild type)	16	≤ 0.015	≤ 0.03	≤ 0.015	0.06
Neisseria gonorrhoeae isolate 25 (GyrA: Wild type, ParC: Wild type, mtrR: -35A Del, A39T, penA: Type V Nonmosaic, A517G, G543S, ponA: L421P, porB: G120K, A121D)	32	0.06	0.25	0.06	4
Neisseria gonorrhoeae isolate 130 (GyrA: Wild type, ParC: Wild type, mtrR: Wild type, penA: Type I NonMosaic, ponA: Wild type, porB: Wild type)	16	≤ 0.015	0.125	≤ 0.015	0.25

Test System	MIC (spectinomycin) [µg/mL]	MIC (ceftriaxone) [µg/mL]	MIC (azithromycin) [µg/mL]	MIC (cefixime) [µg/mL]	MIC (penicillin G) [µg/mL]
Neisseria gonorrhoeae isolate 84 (GyrA: Wild type, ParC: Wild type, mtrR: Wild type, penA: Type XXII NonMosaic, A517G, ponA: L421P, porB: porB1a)	8	≤ 0.015	0.06	≤ 0.015	0.25
Neisseria gonorrhoeae isolate 174 (GyrA: Wild type, ParC: Wild type, mtrR: -35A Del, penA: Type XXII NonMosaic, A517G, ponA: L421P, porB: G120D)	16	0.03	0.5	0.03	4
Neisseria gonorrhoeae isolate 62 (GyrA: Wild type, ParC: Wild type, mtrR: A39T, penA: Type II NonMosaic, A517G, ponA: Wild type, porB: Wild type)	16	≤ 0.015	0.125	≤ 0.015	0.25
Neisseria gonorrhoeae isolate 37 (GyrA: Wild type, ParC: Wild type, mtrR: Wild type, penA: Type I NonMosaic, ponA: Wild type, porB: Wild type)	32	≤ 0.015	0.125	≤ 0.015	0.125
Neisseria gonorrhoeae isolate 157 (GyrA: S91F, D95G, ParC: Wild type, mtrR: -35A Del, penA: Type V Nonmosaic, A517G, G543S, ponA: L421P, porB: G120K, A121N)	16	0.03	0.25	0.03	4
Neisseria gonorrhoeae isolate 7 (GyrA: Wild type, ParC: Wild type, mtrR: -35A Del, A39T, penA: Type V Nonmosaic, A517G, G543S, ponA: L421P, porB: A121D)	16	0.03	0.25	0.03	2
Neisseria gonorrhoeae isolate 48 (GyrA: D95N, ParC: Wild type, mtrR: -35A Del, G45D, penA: Type II NonMosaic, A517G, ponA: Wild type, porB: G120K, A121D)	32	≤ 0.015	0.25	≤ 0.015	> 64
Neisseria gonorrhoeae isolate 222 (GyrA: Wild type, ParC: Wild type, mtrR: -35A Del, G45D, penA: Type XXII NonMosaic, A517G, ponA: L421P, porB: Wild type)	16	≤ 0.015	≤ 0.03	≤ 0.015	0.25
Neisseria gonorrhoeae isolate 77 (GyrA: Wild type, ParC: Wild type, mtrR: G45D, penA: Type XXII NonMosaic, A517G, ponA: Wild type, porB: Wild type)	16	≤ 0.015	0.06	0.03	0.25
Neisseria gonorrhoeae isolate 153 (GyrA: Wild type, ParC: Wild type, mtrR: -35A Del, penA: Type XXII NonMosaic, A517G, ponA: Wild type, porB: G120D)	8	≤ 0.015	≤ 0.03	≤ 0.015	0.06
Neisseria gonorrhoeae isolate 192 (GyrA: Wild type, ParC: Wild type, mtrR: Wild type, penA: Type I NonMosaic, ponA: Wild type, porB: Wild type)	32	≤ 0.015	0.25	≤ 0.015	2
Neisseria gonorrhoeae isolate 215 (GyrA: Wild type, ParC: Wild type, mtrR: -35A Del, G45D, penA: Type II NonMosaic, A517G, ponA: L421P, porB: G120K, A121D)	16	0.03	0.25	≤ 0.015	2
Neisseria gonorrhoeae isolate 155 (GyrA: Wild type, ParC: Wild type, mtrR: Wild type, penA: Type I NonMosaic, ponA: Wild type, porB: Wild type)	32	≤ 0.015	0.125	≤ 0.015	0.125
Neisseria gonorrhoeae isolate 202 (GyrA: Wild type, ParC: Wild type, mtrR: Wild type, penA: WT NonMosaic, ponA: Wild type, porB: Wild type)	16	≤ 0.015	0.125	≤ 0.015	≤ 0.03
Neisseria gonorrhoeae isolate 198 (GyrA: Wild type, ParC: Wild type, mtrR: -35A Del, A39T, penA: Type IV NonMosaic, A517G, G543S, ponA: Wild type, porB: A121D)	16	≤ 0.015	≤ 0.03	≤ 0.015	0.125
Neisseria gonorrhoeae isolate 139 (GyrA: Wild type, ParC: Wild type, mtrR: Wild type, penA: Type II NonMosaic, A517G, ponA: Wild type, porB: porB1a)	16	≤ 0.015	0.125	≤ 0.015	0.125
